Assay results published in PMC3498381, “Isolated Toll-like Receptor Transmembrane Domains Are Capable of Oligomerization” (PLoS ONE, 2012).
Positions count from the first letter of the chain named. No constants are given. Whether binding was seen depends on the method and setting. Some binding calls cover weakened binding; strength is not graded here.

Experiments:
[1] = target: TLR2 transmembrane domain G593V (ToxR chimera) (human) (UniProt O60603); assay: ToxR reporter assay; homotypic; MBP-TMD-ToxR chimera in the membrane of E. coli FHK12; β-galactosidase activity (Miller units) normalised to the GpA signal and to expression levels
[2] = target: TLR2 transmembrane domain A597V (ToxR chimera) (human) (UniProt O60603); assay: as above
[3] = target: TLR2 transmembrane domain C609I (ToxR chimera) (human) (UniProt O60603); assay: as above
[4] = target: TLR4 transmembrane domain (ToxR chimera) (human); assay: as above
[5] = target: T1, TLR1 transmembrane domain (ToxR chimera) (human); assay: dominant-negative ToxR reporter assay; heterotypic; one TMD with functional ToxR (dominant phenotype) and one with non-functional ToxR* (negative phenotype) co-expressed in E. coli FHK12; interaction read as reduction of β-galactosidase signal; normalised to poly-Leu* and to expression …
T1 sequence: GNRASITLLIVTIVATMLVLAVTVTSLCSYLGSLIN

[6] = target: T2, TLR2 transmembrane domain (ToxR chimera) (human); assay: as above
T2 sequence: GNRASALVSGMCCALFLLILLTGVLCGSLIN

[7] = target: T3, TLR6 transmembrane domain (ToxR chimera) (human); assay: as above
T3 sequence: T1 sequence with V14G, S29I

[8] = target: T2, TLR2 transmembrane domain (ToxR chimera) (human); assay: ToxR reporter assay; homotypic; MBP-TMD-ToxR chimera in the membrane of E. coli FHK12; β-galactosidase activity (Miller units) normalised to the GpA signal and to expression levels
[9] = target: T1, TLR1 transmembrane domain (ToxR chimera) (human); assay: as above
[10] = target: T3, TLR6 transmembrane domain (ToxR chimera) (human); assay: as above
[11] = target: TLR5 transmembrane domain (ToxR chimera) (human); assay: as above
[12] = target: TLR10 transmembrane domain (ToxR chimera) (human); assay: as above
[13] = target: TLR3 transmembrane domain (ToxR chimera) (human); assay: as above
[14] = target: TLR8 transmembrane domain (ToxR chimera) (human); assay: as above

## TLR2 transmembrane domain G593V (ToxR chimera) (from UniProt O60603 589-609) (domain or fragment)
[1]
  binding: binds

## TLR2 transmembrane domain A597V (ToxR chimera) (from UniProt O60603 589-609) (domain or fragment)
[2]
  binding: binds

## TLR2 transmembrane domain C609I (ToxR chimera) (from UniProt O60603 589-609) (domain or fragment)
[3]
  binding: binds

## GNRASTIIGVSVLVVSVVAVLVYKFYFGSLIN (domain or fragment) [TLR4 transmembrane domain (ToxR chimera)]
[4]
  binding: binds
[5]
  binding: no binding
[6]
  binding: no binding
[7]
  binding: no binding

B1: TLR2 transmembrane domain (ToxR chimera) (domain or fragment)
chain: T2 sequence
notes: flank encoded by the reading frame of the plasmid construct; Toll-like receptor 2 transmembrane domain, human, as identified by hydrophobic analysis; One molecule for the ToxR and the ToxR* form of this TMD; also called TLR2 TMD; wild type TLR2 TMD; source: E. coli FHK12, transformed with pTox7 or pTox6 plasmid, in the cells' membrane
[8]
  binding: binds
[6]
  binding: binds

B2: TLR1 transmembrane domain (ToxR chimera) (domain or fragment)
chain: T1 sequence
notes: flank encoded by the reading frame of the plasmid construct; Toll-like receptor 1 transmembrane domain, human, as identified by hydrophobic analysis; One molecule for the ToxR and the ToxR* form of this TMD; also called TLR1 TMD; source: E. coli FHK12, transformed with pTox7 or pTox6 plasmid, in the cells' membrane
[9]
  binding: binds
[5]
  binding: binds

B3: TLR6 transmembrane domain (ToxR chimera) (domain or fragment)
chain: T1 sequence with V14G, S29I
notes: flank encoded by the reading frame of the plasmid construct; Toll-like receptor 6 transmembrane domain, human, as identified by hydrophobic analysis; One molecule for the ToxR and the ToxR* form of this TMD; also called TLR6 TMD; source: E. coli FHK12, transformed with pTox7 or pTox6 plasmid, in the cells' membrane
[10]
  binding: binds
[7]
  binding: binds

## GNRASFSLFIVCTVTLTLFLMTILTVTGSLIN (domain or fragment) [TLR5 transmembrane domain (ToxR chimera)]
[11]
  binding: binds
[5]
  binding: binds weakly
[6]
  binding: binds weakly
[7]
  binding: binds weakly

B4: TLR10 transmembrane domain (ToxR chimera) (domain or fragment, human)
chain: GNRASALLIVTIVVIMLVLGLAVAFCCLGSLIN
notes: flank encoded by the reading frame of the plasmid construct; Toll-like receptor 10 transmembrane domain, human, as identified by hydrophobic analysis; One molecule for the ToxR and the ToxR* form of this TMD; also called TLR10 TMD; source: E. coli FHK12, transformed with pTox7 or pTox6 plasmid, in the cells' membrane
[12]
  binding: binds

## GNRASLFFMINTSILLIFIFIVLLIHFGSLIN (domain or fragment) [TLR3 transmembrane domain (ToxR chimera)]
[13]
  binding: binds

## GNRASVTAVILFFFTFFITTMVMLAALAGSLIN (domain or fragment) [TLR8 transmembrane domain (ToxR chimera)]
[14]
  binding: binds
